In all, about 13,000 compounds were measured (“IFI”: median about 4, highest 2% from about 17 on). Some of the results follow.

A short description of this experiment: GSK_TCMDC: Inhibition Frequency Index (IFI). The number of non-kinase HTS assays where a compound showed > 50 % inhibition, expressed as a percentage of the number of such assays in which the compound was tested (-0 is zero). The class given is functional.
As for `CCCCCN1CCC(NS(=O)(=O)c2cccc(C(=O)Nc3cccc(C(F)(F)F)c3)c2)C1` (configuration not stated), the IFI was 4.12%.

Compound `CCN(C)C(=O)n1ncc2c3c(N)nc(N)nc3ccc21` registered an IFI of 2.52%.

In turn, `CNCc1cccc2nc(-c3ccc(Cc4cc(Cl)ccc4OCC(C)C)o3)[nH]c12` displayed an IFI of 16.7%.

The compound `Cc1cc(C)n(Cc2ccc(C(=O)NCC3CCCCC3)cc2)n1` yielded an IFI of 1.43%.

`CC(C)(C)c1ccc(CNC(=O)c2ccc(CNC3CCC(N)CC3)s2)cc1` (configuration not stated) displayed an IFI of 2.96%.

For the compound `COCCNCC(O)Cn1c2ccc(Cl)cc2c2cc(Cl)ccc21` (configuration not stated), the IFI amounted to 11.4%.

On to `CC(CN)OCn1cnc2c(N)ncnc21` (configuration not stated), for which the IFI worked out at 2.19%.

In turn, `CC1(C)N=C(N)N=C(N)N1OCCCc1ccccc1` yielded an IFI of 4.35%.

On to `CC[C@H](N/C(=N\c1ccc(-c2ccccc2)cc1)Nc1ccc(C#N)cc1O)c1ccccc1`, for which the IFI amounted to 0.72%.

With `Cc1cn(CC(=O)Nc2cccc(-c3cccc(-c4nc5cc(C(F)(F)F)ccc5[nH]4)c3)c2)c(=O)[nH]c1=O`, the IFI came to 1.71%.

`COc1ccc2nccc([C@@H](O)CN3CCC(NCc4nc5c(C#N)cccc5[nH]4)CC3)c2c1` returned an IFI of 2.17%.

`O=C(NC1CCN(CCN2CCc3ccccc3CC2)CC1)c1ccc(-c2ccc(C(F)(F)F)cc2)cc1` showed an IFI of 6.96%.

Consider `CCc1cn2c3c(cc(C(=O)N[C@@H](Cc4ccccc4)[C@H](O)CNC4CC4)cc13)N(CC)S(=O)(=O)CC2`, for which the IFI worked out at 3.7%.

In the case of `NC(=O)NC(=O)C=Cc1ccco1`, the IFI turned out to be 3.6%.

Regarding `COC(=O)c1cccc(CN(CCC(O)(C(F)(F)F)C(F)(F)F)C(=O)CC2CCCC2)c1`, the IFI stood at 8.57%.

`CN1CCCC1CCOc1ccc2c(c1)N(C(=O)Nc1cc(Br)cc(C(F)(F)F)c1)CC2` (configuration not stated) gave an IFI of 2.92%.

As to `COc1cccc(NC(=O)Nc2ccc(-c3oc(C(=O)NCC(c4ccccc4)N(C)C)cc3-c3ccncc3)cc2)c1` (configuration not stated), the IFI worked out at 6.85%.

For the compound `O=C(Nc1cccc(C(F)(F)F)c1)c1ccc(S(=O)(=O)NCC2CCCN2CC2CCCCC2)cc1` (configuration not stated), the IFI was 7.23%.

For `CCOc1ccc(/C=C/C(=O)Nc2cccc3c2CCN(C)C3)cc1`, the IFI is 0%.

In turn, `O=c1cc(NCCCNCc2ccc(Cl)c(Cl)c2)[nH]c2ccc(C(F)(F)F)cc12` gave an IFI of 2.33%.

For the compound `Nc1nc(N)c2c(ccc3c2ccn3CC2CC2)n1`, the IFI is 1.45%.

`CCN(CC)CCOc1c(Cl)cc(Cl)cc1CNCCCNc1cc(=O)c2ccccc2[nH]1` displayed an IFI of 1.33%.

`COc1ccc2c(c1)c(C1CCN(CCCCNC(=O)c3ccc(-c4ccc(C(F)(F)F)cc4)cc3)CC1)cn2C(C)C` came in with an IFI of 4.59%.

Regarding `COc1cccc(-c2[nH]c3ccccc3c2CN2CCC(c3c(C)cccc3C)CC2)c1`, the IFI was found to be 7.75%.

Compound `O=C1C([N+](=O)[O-])=C(O)c2c(F)cccc21` showed an IFI of -0%.

On to `CN(C(=O)NCCc1ccccc1)C1CCN(CCCCCNC(=O)/C=C/c2ccc(Cl)c(Cl)c2)CC1`, for which the IFI came to 9.09%.

The compound `CCn1cnc2c(N3CCCCS3(=O)=O)cc(C(=O)N[C@@H](Cc3ccccc3)[C@H](O)CNC3CCOCC3)cc21` returned an IFI of 0.74%.

On to `COc1cc(Cc2cnc(N)nc2N)cc(OCCCCC2SC(=O)NC2=O)c1OC` (configuration not stated), for which the IFI came to 0.72%.

In turn, `N#Cc1ccc2c(c1)CCN(CCC1CCC(NC(=O)Nc3ccnc4ccccc34)CC1)C2` (configuration not stated) yielded an IFI of 3.01%.

In turn, `O=C(NCCCNc1ccc2ccccc2n1)c1cc2c(Cl)cc(Cl)cc2[nH]1` showed an IFI of 5.97%.

For the compound `CCOc1ccc(C(Cc2ccccc2)NC(=O)c2cccnc2)cc1OCC` (configuration not stated), the IFI stood at 0.83%.

For the compound `COc1ccc2nc(C)cc(Nc3ccc(Cl)cc3)c2c1`, the IFI turned out to be 2.17%.

`O=C(NC1CCC(N2CCN(c3cccc(C(F)(F)F)c3)CC2)CC1)c1cc2ccccc2[nH]1` (configuration not stated) displayed an IFI of 17.6%.

The compound `Cc1cnc(C(=O)Nc2cccc(-c3csc(-c4nc5ccccc5[nH]4)c3)c2)cn1` returned an IFI of 3.74%.

Turning to `Cc1ccccc1C1CCN(C2CCC(NC(=O)/C=C/c3ccc(C(F)(F)F)cc3)CC2)CC1` (configuration not stated), the IFI was found to be 10%.

Consider `COc1cc2ccccc2c(CON2C(=N)N=C(N)NC2(C)C)c1OC`, for which the IFI was 2.82%.

As to `COc1cccc(CNC(=O)c2ccnc(-c3ccc(CNCCOc4ccccc4)cc3)c2)c1`, the IFI turned out to be 3.77%.

`CN1CCN(c2cc(NC(=O)Nc3cccc(Cl)c3Cl)ccc2Cl)CC1` registered an IFI of 4.29%.

Take `O=C(Nc1ccc(Cl)cc1)Nc1cccc(CCNCc2ccccc2)c1`: the IFI was determined as 6.29%.

Consider `COc1nc2c(CCN3CC[C@H](NCc4ccc5c(c4)NC(=O)CO5)[C@H](O)C3)c(Cl)cnc2cc1F`, for which the IFI was determined as 2.13%.

On to `Cc1cc(=O)[nH]c2cc(Nc3ccnc(Nc4cccc(C(N)=O)c4)n3)ccc12`, for which the IFI is 2.82%.

`CCNc1cc(C)nc(Nc2ccc(NC(=O)c3ccccc3)cc2)n1` registered an IFI of 9.8%.

With `COc1ccc(-c2ccc(NC(=O)c3cccc(Cl)c3)cc2)cc1CN1CCCN(C)CC1`, the IFI was determined as 6.98%.

`Cc1cccc(CNc2nccc3[nH]c4ccccc4c23)c1` displayed an IFI of 9.92%.

The compound `O=C(NCCCCCN1CCC(c2c[nH]c3ccccc23)CC1)Nc1ccc(I)c(Cl)c1` gave an IFI of 6.3%.

`COc1cccc2cc(C(=O)N[C@@H](CC(C)C)C(=O)N[C@H](C=NNC(=O)OC(C)(C)C)Cc3ccccc3)oc12` yielded an IFI of 10%.

In turn, `Cc1ccc(NC(=O)NC2CCN(CCCCCNC(=O)C3CC3c3ccc(Cl)c(Cl)c3)CC2)cc1` (configuration not stated) yielded an IFI of 12.4%.

For the compound `COc1ccccc1Oc1c(N(C)S(=O)(=O)c2ccc(C(C)C)cc2)nc(C(F)(F)F)nc1N(C)S(=O)(=O)c1ccc(C(C)C)cc1`, the IFI is -0%.

As for `COc1ccc(Cc2cccc(C(C(=O)NCc3cc(Cl)cc(Cl)c3)N3CCN(C)CC3)c2)cc1` (configuration not stated), the IFI is 7.75%.

On to `Cc1cc(N2CCOCC2)nc2ccc(NC(=O)c3cccc([N+](=O)[O-])c3)cc12`, for which the IFI stood at 1.52%.

With `CCc1ccc(CN2CCC(CN(c3ccc(N4CCOCC4)c(F)c3)S(=O)(=O)c3ccc(C(C)(C)CC)cc3)CC2)cc1`, the IFI was 3.76%.

Consider `Fc1ccc(COc2ccc(Nc3ncnc4ccc(I)cc34)cc2Cl)cc1`, for which the IFI worked out at 3.76%.

With `O=C(/C=C/c1ccc(I)cc1)NCCCCCN1CCC(c2c[nH]c3ccccc23)CC1`, the IFI is 6.29%.

In turn, `COC(=O)c1ccc(CCC(C)NCC(O)c2cccc(Cl)c2)cc1` (configuration not stated) had an IFI of 2.88%.

`N=C(N)Nc1ccc(OCCCCCOc2ccc(NC(=N)N)cc2)cc1` registered an IFI of 3.13%.

Consider `N=C1N=C(N)NC2(CCCCC2)N1OCCCOc1cccc2ccccc12`, for which the IFI turned out to be 9.16%.

In turn, `CN(C)CCNCc1nc(-c2ccc3c(Nc4ccc(Oc5ccccc5)cc4)ccnc3c2)cs1` had an IFI of 5.19%.

`Cc1nc2nc(N)nc(N)c2c(C)c1Cc1cccc(F)c1`: the IFI turned out to be 2.92%.

Compound `Cc1cc(NC(=O)c2coc3cc(F)c(N4CC(C)N(C)C(C)C4)cc23)cnc1-c1ccc(C#N)cc1` (configuration not stated) came in with an IFI of 3.62%.

Consider `Cc1cc(-c2cc(Cl)ccc2Cl)no1`, for which the IFI came to 0%.

Regarding `CCC1(C)CC(CCNCc2ccccc2O)(c2ccccc2OC)CCO1` (configuration not stated), the IFI was 2.13%.

`CCOc1cc(Cl)c(C(C)NC(=O)c2cccc(OC)c2)cc1OCC` (configuration not stated) returned an IFI of -0%.

As for `Cc1nc(-c2cccc(Nc3nccc(NCC(O)c4ccccc4C)n3)c2)cs1` (configuration not stated), the IFI is 13.6%.

`COCCNCc1ccc(-c2cccc(CN(C(=O)NCCc3ccccc3)C3CCN(Cc4ccccc4)CC3)c2)cc1`: the IFI came out at 7.35%.

Turning to `CC(C)CC(NC(=O)c1cc2ccccc2s1)C(=O)N1CCCCCC1c1ccc(C(C)(C)C)cc1` (configuration not stated), the IFI turned out to be 0.93%.

For `Cc1c(Cl)ccc2sc(N3CCN(C(=O)c4ccc([N+](=O)[O-])o4)CC3)nc12`, the IFI turned out to be 2.27%.

`N#Cc1ccc2c(c1)CN(CCCCNC(=O)c1ccc(-c3ccccc3)cc1)CC2` showed an IFI of 2.16%.

In turn, `c1cc(-c2ccc(CNCc3ccsc3)cc2)cc(-c2nc3ccccc3[nH]2)c1` had an IFI of 7.69%.

As to `CCOC(=O)c1c(C)n(-c2ccc(Cl)cc2)c2ccc(OC(=O)C=Cc3ccccc3)cc12`, the IFI is -0%.

Compound `Cc1ccc2c(=NN=Cc3ccc(Cl)cc3)cc(C)[nH]c2c1` displayed an IFI of -0%.

`CC(Cc1ccc(OCCN2CCN(c3cccc(Cl)c3)CC2)cc1)NCC(O)c1cccc(C(F)(F)F)c1` (configuration not stated) returned an IFI of 17.2%.

Compound `Cc1[nH]c(C)c([N+](=O)[O-])c(=O)c1-c1ccc(Oc2ccccc2)cc1` gave an IFI of 1.89%.

`COc1ccc2nccc([C@@H](O)CN3CCC(NCc4ccc5c(c4)oc(=S)n5C)CC3)c2c1` displayed an IFI of 3.65%.

`Cc1cc(O)c(-c2ccc(S(=O)(=O)c3ccc(Cl)cc3)cc2)c(C)n1` returned an IFI of 0.77%.

`CC(C)NCc1cccc(-c2ccc(-c3nc4ccccc4[nH]3)cc2)c1` had an IFI of 2.97%.

`FC(F)(F)c1cccnc1N1CCC(Nc2nc3cc(Cl)ccc3[nH]2)CC1` registered an IFI of 16.2%.

As to `O=C(NCCCCN1CCC(c2cccc3ccccc23)CC1)c1ccc(NC(=O)c2ccc(Cl)cc2)cc1`, the IFI was 3.7%.

Turning to `CCN(CCCN1CCCCC1)c1cc(C)nc(Nc2ccc(C)cc2)n1`, the IFI came to 2.56%.

On to `Cc1cc(N2CCOCC2)nc2ccc(NC(=O)c3ccc(Cl)c([N+](=O)[O-])c3)cc12`, for which the IFI is 1.1%.

`CN(Cc1ccncc1)C(Cc1ccccc1)C1CCN(Cc2ccc(O)c(Cl)c2)CC1` (configuration not stated): the IFI is 5.26%.

On to `CCN(CCCN1CCCCC1)c1cc(C)nc(Nc2ccc3c(c2)CCC3)n1`, for which the IFI amounted to 3.75%.

Turning to `O=C(c1cccc(COc2ccc3c(c2)CCN(C2CCCC2)CC3)c1)N1CCN(c2ccncc2)CC1`, the IFI came to 4.32%.

For the compound `COc1ccc2nccc([C@@H](O)CN3CCC(NC(=O)/C=C/c4ccc5[nH]c(=O)ccc5c4)CC3)c2c1`, the IFI amounted to 0%.

The compound `COc1ccc(-c2cnc(N)c(-c3ccc(O)c(OC)c3)c2)cn1` came in with an IFI of 8.33%.

With `NC(=O)COc1c(C2CCN(CCCCNC(=O)c3ccc(-c4ccc(Cl)cc4)c(O)c3)CC2)ccc2c1CCCC2`, the IFI was 13.8%.

Consider `CCCc1cccc(OC)c1OCCCON1C(N)=NC(N)=NC1(C)C`, for which the IFI was found to be 4.51%.

For `O=C(Nc1cccc(Cl)c1Cl)N[C@H]1CCN(CCCCCNC(=O)C2CC2c2ccc(Cl)c(Cl)c2)C1` (some centres not stated), the IFI came to 13.3%.

The compound `COc1ccc2nccc([C@@H](O)CN3CCC(NC(=O)C(c4cccs4)N4CCN(c5ccc(F)cc5)CC4)CC3)c2c1` (some centres not stated) displayed an IFI of -0%.

The compound `CCCNCc1ccc(-c2ccc(CN(CCOC)C(=O)c3cnc(C)cn3)cc2)nc1` registered an IFI of 0%.

Compound `N=c1n(CCN2CCCCC2)c2ccccc2n1CC(O)c1cccc(Br)c1` (configuration not stated) had an IFI of 2.21%.

In the case of `CCCCCCCCOc1c(OCC)cc(Cc2cnc(N)nc2N)cc1OCC`, the IFI stood at 0.76%.

The compound `CC(C)COc1ccc(Cl)cc1Cc1ccc(-c2nc3cc(F)c(F)cc3[nH]2)o1` came in with an IFI of 13.7%.
